The source gives no read counts; variants with many changes may rest on few reads.
B1: OR4K15 (parent)
chain: GUUAACGGUCAUAGGCCAUGGAAACUAGGAGCACCAUUUCGCUGCCAGUGAAGAAAUGAACAAAGAAAAUCUGGGCCAGGCAGGCAUCAAAAGAAAUAGUCUUGCGCUCAACCAGAAAGUCUGUAAUCAUUUUAAGGGUA

Variants of: B1
Assay: self-cleavage, relative activity (ratio to wild type); higher = more cleavage; in vitro, sequencing; the parent is a self-cleaving ribozyme

| Variant | self-cleavage |
| --- | --- |
| GUUAGCGGUCAUAGGCCAUGGAAACUAGGAGCACCAUUUCGCUGCCAGUGAAGAAAUGAACAAAGAAAAUCUGGGCCGGGCAGGCAUCAAAAGAAAUAGUCUUGCGCUCAACCAGAAAGUCUGUAAUCAUUUUAAGGGUC | 0.07 |
| GUUAGCGGUCAUAGGCCAUGGAAACUAGGAGCACCAUUUCGCUGCCAGUGAAGAAAUGAACAAAGAAAAUCUGGGCCAGGCGGGCAUCAAAAGAAAUAGUCUUGCGCUCAACCAGAAAGUCUGCAAUCAUUUUAAGGGUA | 0.3 |
| GUUAGCGGUCAUAGGCCAUGGAAACUAGGAGCACCAUUUCGCUGCCAGUGAAGAAAUGAACAAAGAAAAUCUGGGCCAGGCGGGCAUCAAAAGAAAUAGUCUUGCGCUCAACCAGAAAGUCUGUAAUCAUUAUAAGGGUA | 0.8 |
| GUUAGCGGUCAUAGGCCAUGGAAACUAGGAGCACCAUUUCGCUGCCAGUGAAGAAAUGAACAAAGAAAAUCUGGGCCGGGCAGGCAUCAAAAGAAUUAGUCUUGCGCUCAACCAGAUAGUCUGUAAUCAUUUUAAGGGUA | 0 |
| GUUAGCGGUCAUAGGCCAUGGAAACUAGGAGCACCAUUUCGCUGCCAGUGAAGAAAUGAACAAAGAAAAUCUGGGCCGGGCAGGCAUCGAAAGAAAUAGUCUUGCGCUCAACCAGAAAGUCUGUAAUCAUUUUAAGGGUA | 0.34 |
| GUUAGCGGUCAUAGGCCAUGGAAACUAGGAGCACCAUUUCGCUGCCAGUGAAGAAAUGAACAAAGAAAAUCUGGGCCAGGCAGGCAUCAAAAGAGAUAGUCUUGCGCUCAACCAGGAAGUCUGUAAUCAUUUUAAGGGUA | 0.76 |
| GUUAGCGGUCAUAGGCCAUGGAAACUAGGAGCACCAUUUCGCUGCCAGUGAAGAAAUGAACAAAGAAAAUCUGGGCCAGGCAGGCAUCAAAAGGAAUAGUCUUGCGCUCAACCAGAAAGUCUGUAAUCAUUCUGAGGGUA | 1.12 |
| GUUAGCGGUCAUAGGUCAUGGAAACUAGGAGCACCAUUUCGCUGCCAGUGAAGAAAUGAACAAAGAAAAUCUGGGCCGGGCAGGCAUCAAAAGAAAUAGUCUUGCGCUCAGCCAGAAAGUCUGUAAUCAUUUUAAGGGUA | 0.06 |
| GUUAGCGGUCAUAGGCCAUGGAAACUAGGAGCACCAUUUCGCUGCCAGUGAAGAAAUGAACAAAGAAGAUCUGGGCCAGGCAGGCAUCAAAAGAAAUAGACUUGCGCCCAACCAGAAAGUCGGUAAUCAUUUUAAGGGUA | 0.04 |
| GUUAGCGGUCAUAGGCCAUGGAAACUAGGAGCACCAUUUCGCUGCCAGUGAAGAAAUGAACAAAGAAAAUCUGGGCCAGGCAGGCAUCAAAAGAAAUAGUCUUGCGCUCAACCAGAUAGUCUGUAAUCAUUCUAAGGGUA | 0.31 |
| GUUAGCGGUCAUAGGCCAUGGAAACUAGGAGCACCAUUUCGCUGCCAGUGAAGAAAUGAACAAAGAAAUUCUGGGCUAGGCAGGCAUCAAAAGAAAUAGUCUUGCGCUCAACCAGAAGGUCAGUAAUCAUCUUAAGGGUA | 0.79 |
| GUUAGCGGUCAUAGGCCAUGGAAACUAGGAGCACCAUUUCGCUGCCAGUGAAGAAAUGAACAAAGAAAAUCUGGGCCAGGCAGGCAUCAAAAGAAAUAGUAUUGCGCUCCACCAGAAAGUCUGUAAUCAUUUUAAGGGUA | 0.03 |
| GUUAGCGGUCAUAGGCCAUGGAAACUAGGAGCACCAUUUCGCUGCCAGUGAAGAAAUGAACAAAGAAACUCUGGGCCAGGCAGGCAUCAAAAGAAAUAGUCUUGCGCUCAACCAGAAAGUCUGUAAUCACUUUAAGGGUA | 0.5 |
| GUUAGCGGUCAUAGGCCAUGGAAACUAGGAGCACCAUUUUGCUGCCAGUGAAGAAAUGAAUAAAGAAAAUCUGGGCCAGGCAGGCAUCAAAAGAAGUAGUCUUGCGCUCAACCAGAAAGUCUGUAACCACUUUAAGGGUA | 0.72 |
| GUUAGCGGUAAUAGGCCAUGGAAACUAGGAGCACCAUUACGCUGCCAGUGAAGAAAUGAACAGAGAAAAUCUGGGCCAGGCAGGCAUCAAAAGAAAUAGUCUUGCGCUCAACCAGAAAGUCUGUAAUCAUUUUAAGGGUA | 0.86 |
| GUUAGCGGUCAUAGGCCAUGGAAACUAGGAGCACCAUUUCGCUGCCAGUGAAGAAAUGAACAAAGAAAAUCUGGGCCAGGCAGGCAUCUAAAGAAAUAGUCUCGCGCUCAACCAGAAAGUCAGUAAUCAUUUUAAGGGUA | 0.6 |
| GUUAGCGGUCAUAGGCUAUGGAAACUAGGAGCACCAUUUCGCUGCCAGUGAAGAAAUGAACAAAGAAAAUCUGGGCCAGGCAGGCAUCAAGAGAAAUAGUCUUGCGCUCAACCAGAAAGUCUGUAAUCAUUUUAAGGGUA | 0.45 |
| GUUAGUGGUCAUAGGCCAUGGAAACUAGGAGCACCAUUUCGCUGCCAGUGAAGAAAUGAACAAAGAAAAUCUGGGCCAGGCAGGCAUCGAAAGAAAUAGUCUUGCGCUCAGCCAGAAAGUCUGUAAUCAUUUUAAGGGUA | 0.05 |
| GUUAGCGGUCAUAGGCCAUGGAAACUAGGAGCACCAUUUCGCUGCCAGUGAAGAAAUGAACAAAGAAAAUCUGGGCCAGGCAGGCGUCAAAAGAAAUAGUCUUGCGCUCAACCAGAAAGUAUGUAAUCAUUUUAAGGGUG | 2.24 |
| GUUAGCGGUCAUAGGCCAUGGAAACUAGGAGCACCAUUUCGCUGCCAGUGAAGAAAUGAACAAAGAAUAUCUGGGCCAGGCAGGCAUCAAAAGAAGUAGUCUUGCGCUCAACCAGAAAGUCUGUAAUCAUUUUAAGGGUA | 1.12 |
| GUUAGCGGUCAUAGGCCAUGGAAACUAGGAGCACCAUUUCGCUGCCAGUGAAGAAAUGAACAAAGAAAAUCUGGGCCAGGCAGGCAUCUAAAGGAAUAGUCUUGCGCUCAACCAGAAAGUCUGUAAUCAUUCUAAGGGUA | 1.7 |

| Variant | self-cleavage |
| --- | --- |
| GUUAGCGGUCAUAGGCCAUGGAAACUAGGAGCACCAUUUCGCUGCCAGUGAAGAAAUGAACAAAGAAAAUCUGGGCCAGGCAGGCAUCAAAAGAAAUAGUCUUGCGCUCGACCAGAAAGUCUGUAAUCACUUUAAGGGUA | 0.12 |
| GUUAGCGGUCAUAGGCCAUGGAAACUAGGAGCACCAUUUCGCUGCUAGUGAAGAAAUGAACAAAGAUAAUCUGGGCCAGGCUGGCAUCAAUAGAAAUAGUCUUGCGCUCAACCAGAAGGUCUGUAAUCAUUUUAAGGGUA | 0.08 |
| GUUAGCUGUCAUAGGCCAUGGAAACUAGGAGCACCAUUUCGCUGCCAGUGAAGAAAUGAACAGAGAGAAUCUGGGCCAGGCAGGCAUCAAAAGAAAUAGUCUUGCGCUCAACCAGAAAGUCUGUAAUCAUUUUAAGGGUA | 1.19 |
| GUUAGCGGUCAUAGGCCAUGGAAACUAGGAGCACCAUUUCGCUGCCAGUGAAGAAAUGAACAAAGAAAAUCUGGGCCAGGCAGGCAUCAAGAGAAAUAGUCUUGCGCUCAACCAGAAAGUCUGUAAUCAUUUUAAGGGCA | 0.36 |
| GUUAGCAGUCAUAGGCCAUGGAAACUAGGAGCACCAUUUCGCUGCCAGCGAAGAAAUGAACAAAGAAAAUCUGGGCCAGGCAGGCAUCAAAAGAAAUAGUCUUGCGCCCAACCAGAAAGUCUGUAAUCAUUUUAAGGGUA | 0.06 |
| GUUAGCGGUCAUAGGCCAUGGAAACUAGGAGCACCAUUUCGCUGCCAGUGAAGAAAUGAACAAAGAAGAUCCGGGCCAGGCAGGCAUCAAAAGAAAUAGUCUUGCGCUCAACCAGAAAGUCUGUAAUCAUUUUAAGGGUA | 0.55 |
| GUUAGCGGUCAUAGGCCAUGGAAACUAGGAGCACCAUUUCGCUGCCAGUGAAGAAAUGAACAAAGAAAAUCUGGGCCAGGCAGGCGUCAAAAGAAAUAGUCUUGCGCUCUACCAGAAAGUCUGUAAUCAUUUUAAGGGUA | 0.86 |
| GUUAGCGGUCAUAGGCCAUGGAAACUAGGAGCACCAUUUCGCUGCCAGUGAAGAAAUGAACAAAGAAAAUCUGGGCCAGGCAGGCAUCAAAAGAAAUAGUCUUGUGCUCAACCAGGAAGUCUGUAAUCAUUUUAAGGGUA | 0.08 |
| GUUAGCGGUCAUAGGCCAUGGAAACUAGGAGCACCAUUUCGCUGCCAGUGAAGAAAUGAACAAAGAAAAUCUGGGCCAGGCAGGCAUCAGAAGAAAUAGUCCUGCGCUCAACCAGAAAGUCUGUAAUCAUUUUAAGGGUA | 1.21 |
| GUUAGCGGUCAUAGGCCAUGGAAACUAGGAGCACCAUUUCGCUGCCAGUGAAGAAAUGAACAAAGAAAAUCUGGGCCAGGCAGGCAUCAAAAGAAAUAGUCUUGCGCUCAGCCAGAAAGUCUGUAAUCAUCUUAAGGGUA | 0.1 |
| GUUAGCGGUCAUAGGCCAUGGAAACUAGGAGCACCAUUUCGCUGCCAGUGAAGAAAUGAACAAAGAAAUACUGGGCCAGGCAGGCAUCAAAAGAAAUAGUCUUGCGCUCAACCAGAAAGUCUGUAAUCAUUUUAAGGGUA | 0.99 |
| GUUAGCGGUCAUAGGCCAUGGAAACUAGGAGCACCAUUUCGCUGCCAGUGAAGAAAUGAACAAAGAAAAUCUGGGCCAGGCAGGCAUCAAAAGAGAUAGUCUUGCGCUCAUCCAGAAAGUCUGUAAUCAUUUUAAGGGUA | 0.34 |
| GUUAGCGGUCAUAGGCCAUGGAAACUAGGAGCACCAUUUCGCUGCCAGUGAAGAAAUGAACAAAGAAAAUCUGGGCCAGGCAGGCAUCAAAAGAAGUAGUCUCGCGCUCAACCAGAAAGUCUGUAAUCACUUUAUGGGUA | 0.61 |
| GUUAGCGGUCAUAGGCCAUGGAAACUAGGAGCACCAUUUCGCUGCCAGUGAAGAAAUGAACAAAGAAAAUCUGGGCCUGGCAGGCAUCAAAAGAAAUGGUCUUGCGCUCAACCAGAAAGUCUGUAAUCAUUUUAAGGGUA | 0.19 |
| GUUAGCGGUCAUAGGCCAUGGAAACUAGGAGCACCAUUUCGCUGCCAGUGAAGAAAUGAACAAAGAAAAUCUGGGCCAGGCAGGCAUCAAAAGAAAUAGUCUUGCGCUCAACCAGAAAGUCUGUAGUCAUUUUACGGGUA | 0.67 |
| GUUAGCGGUCAUAGGCCAUGGAAACUAGGAGCACCAUUUCGCUGCCAGUGAAGAAAUGAACAAAGAAGAUCUGGGCCAGGCAGGCAUCAAAAGAAAUAGUCUUGCGCUCAACCAGAAAGUCUGUAAUCAUCUUAAGGGUA | 0.25 |
| GUUAGCGGUCAUAGGUCAUGGAAACUAGGAGCACCAUUUCGCUGCCAGUGAAGAAAUGAACAAAGAAAAUCUGGGCCAGGCAGGCAUCAAGAGAAAUAGUCUUGCGCUCAACCAGAAAGUCUGUAAUCACUUUAAGGGUA | 0.53 |
| GUUAGCGGUCAUAGGCCAUGGAAACUAGGAGCACCAUUUCGCUGCCAGUGAAGAAAUGAACAAAGAAAAUCUGGGCCAGGCAGGCAUCGAAGGAAAUAGUCUUGCGCUCAACCAGAAAGUCUGUAAUCAUUUUAGGGGUA | 1.22 |
| GUUAGCAGUCAUAGGCCAUGGAAACUAGGAGCACCAUUUCGCUGCCGGUGGAGGAAUGAACAAAGAAAAUCUGGGCCAGGCAGGCAUCAAAAGAAAUAGUCUUGCGCUCAACCAGAAAGUCUGUAAUCAUUUUAAGGGUA | 1.16 |
| GUUAGCGGUCAUAGGCCAUGGAAACUAGGAGCACCAUUUCGAUGCCAGUGAAGAGACGAACAAAGAAAGUCUGGGCCAGGCAGGCAUCAAAAGAAGUAGUCUUGCGCUCAACCAGAAAGUCUGUAAUCAUUUUAAGGGUA | 0.57 |

From the RNAGym collection of RNA variant scans (doi:10.7554/elife.90254)
